The values below come from a collection of fitness landscapes (doi:10.1126/science.1257360).

To fix the notation:
B1: PhoQ; a variant is named by its letters at X, in order, P23837 (parent)
chain: MKKLLRLFFPLSLRVRFLLATAAVVLVLSLAYGMVALIGYSVSFDKTTFRLLRGESNLFYTLAKWENNKLHVELPENIDKQSPTMTLIYDENGQLLWAQRDVPWLMKMIQPDWLKSNGFHEIEADVNDTSLLLSGDHSIQQQLQEVREDDDDAEMTHSVAVNVYPATSRMPKLTIVVVDTIPVELKSSYMVWSWFIYVLSANLLLVIPLLWVAAWWSLRPIEALAKEVRELEEHNRELLNPATTRELTSLVRNLNRLLKSERERYDKYRTTLTDLTHSLKTPLXXLQXXLRSLRSEKMSVSDAEPVMLEQISRISQQIGYYLHRASMRGGTLLSRELHPVAPLLDNLTSALNKVYQRKGVNISLDISPEISFVGEQNDFVEVMGNVLDNACKYCLEFVEISARQTDEHLYIVVEDDGPGIPLSKREVIFDRGQRVDTLRPGQGVGLAVAREITEQYEGKIVAGESMLGGARMEVIFGRQHSAPKDE

This is one part of the list. Some results are limits rather than exact numbers.

In the assay the parent is B1. The experiment in a line: enrichment ratio after two sorts for PhoP signalling (ratio (wild type AVST 3.29)); higher = more functional. The note with it: with PhoP (E. coli).
As for FLLK, the enrichment ratio was at most 0.25.
Take GQQR: the enrichment ratio is at most 0.25.
Next, HHQL: at most 0.25; NSTP: at most 0.25; QKSP: at most 0.25.
With PEVV the figure was at most 0.25; with ANHK, at most 0.25.
With FIHW the figure was at most 0.25.
As for DMEV, the enrichment ratio came out at 1.69.
On to ELCW, for which the enrichment ratio is at most 0.25.
With QCHP the figure was at most 0.25; with FQFF, at most 0.25.
As to KVII, the enrichment ratio is at most 0.25.
Consider FDFQ, for which the enrichment ratio is at most 0.25.
Next, VLAP: at most 0.25; KSAG: at most 0.25.
In the case of SYYA, the enrichment ratio was at most 0.25.
With YCQH the figure was at most 0.25.
With ISGF the figure was at most 0.25; with VRCD, at most 0.25.
Next, ANAQ: 2.2; IDYW: at most 0.25; WPKP: at most 0.25.
As for DDCV, the enrichment ratio was at most 0.25.
With RIIG, the enrichment ratio was at most 0.25.
In the case of EYYR, the enrichment ratio was at most 0.25.
With WYQD the figure was at most 0.25; with SHFA, at most 0.25; with MRFK, at most 0.25.
With YSKY the figure was at most 0.25; with YAAC, at most 0.25; with AILI, 1.77.
With YFCS the figure was at most 0.25; with QQWK, at most 0.25; with WCWI, at most 0.25.
For the variant PDNL, the enrichment ratio was at most 0.25.
FEPH: the enrichment ratio is at most 0.25.
Next, WPSE: at most 0.25.
With GWGA the figure was at most 0.25; with SEVS, 20.4; with WLWA, at most 0.25.
Next, GILY: 7.36.
KTGL: the enrichment ratio is at most 0.25.
With LEVC the figure was at most 0.25.
Next, KILS: at most 0.25; KLLP: at most 0.25; YMNS: at most 0.25.
With KAPN the figure was at most 0.25.
Regarding GAAL, the enrichment ratio was at most 0.25.
Next, DGLG: at most 0.25.
As for KGEI, the enrichment ratio is at most 0.25.
For the variant SLVA, the enrichment ratio is at most 0.25.
On to RFHR, for which the enrichment ratio is at most 0.25.
Next, KRFL: at most 0.25; LNVL: at most 0.25.
For PGRQ, the enrichment ratio is at most 0.25.
With WYMD, the enrichment ratio is at most 0.25.
With FQGA, the enrichment ratio is at most 0.25.
With TGKP the figure was at most 0.25.
As to MMDR, the enrichment ratio is at most 0.25.
Turning to TRWV, the enrichment ratio is at most 0.25.
Take QSEF: the enrichment ratio is at most 0.25.
Consider MKGR, for which the enrichment ratio is at most 0.25.
With MKAQ, the enrichment ratio was at most 0.25.
Next, HPVT: at most 0.25; KVFG: at most 0.25; YIWG: at most 0.25.
Next, WDVY: at most 0.25; YFFG: at most 0.25.
As to YSNG, the enrichment ratio was at most 0.25.
In the case of VAEE, the enrichment ratio was at most 0.25.
With EMWY the figure was at most 0.25; with EAFA, at most 0.25; with QRFC, at most 0.25.
Next, PLLT: at most 0.25; ICRF: at most 0.25.
Next, PQLG: at most 0.25; ENNA: at most 0.25.
As for MQSM, the enrichment ratio was 8.88.
On to SNAA, for which the enrichment ratio is 4.44.
With QKWF the figure was 12.7.
As for KVTR, the enrichment ratio was at most 0.25.
With YWCD the figure was at most 0.25.
Next, DACF: at most 0.25; HPRE: at most 0.25.
As for TILK, the enrichment ratio was at most 0.25.
Next, RHGA: at most 0.25; FDHP: at most 0.25.
Next, VRGT: at most 0.25; LFTD: at most 0.25; YKEM: at most 0.25.
Consider ADDI, for which the enrichment ratio was at most 0.25.
With TNEI, the enrichment ratio came out at 4.26.
Next, TDDW: at most 0.25.
KCSM: the enrichment ratio was at most 0.25.
Regarding THPQ, the enrichment ratio was at most 0.25.
Regarding DCDA, the enrichment ratio was at most 0.25.
For GHAL, the enrichment ratio is at most 0.25.
Consider FYCR, for which the enrichment ratio is at most 0.25.
Next, MRWT: at most 0.25.
With ARGM the figure was at most 0.25.
Next, MCDW: at most 0.25; FFYC: at most 0.25.
As to YGTR, the enrichment ratio was at most 0.25.
Turning to SMNL, the enrichment ratio was 2.56.
For the variant RQHD, the enrichment ratio was at most 0.25.
Next, NKDL: at most 0.25.
With ARSV the figure was at most 0.25; with YPWM, at most 0.25; with HPPA, at most 0.25.
Next, SWDQ: at most 0.25; QQMA: at most 0.25.
Turning to PRIH, the enrichment ratio was at most 0.25.
With HTCS the figure was at most 0.25.
Next, RYNP: at most 0.25; DYQA: at most 0.25.
As for SYTR, the enrichment ratio was at most 0.25.
On to WFVW, for which the enrichment ratio was at most 0.25.
Next, IYKM: at most 0.25.
Next, RYPM: at most 0.25; TQPQ: at most 0.25.
With PAHY the figure was at most 0.25; with LTEE, at most 0.25.
For the variant MYSH, the enrichment ratio is at most 0.25.
On to LIWT, for which the enrichment ratio was at most 0.25.
Regarding GAFL, the enrichment ratio is at most 0.25.
GALL: the enrichment ratio was 13.8.
For the variant DQSD, the enrichment ratio is at most 0.25.
As for IQAG, the enrichment ratio is at most 0.25.
LTGV: the enrichment ratio is at most 0.25.
With NPTG the figure was at most 0.25; with HMLV, at most 0.25.
Next, INCD: at most 0.25; QYDN: at most 0.25; EHPP: at most 0.25.
With YFHQ, the enrichment ratio was at most 0.25.
In the case of GNPP, the enrichment ratio was at most 0.25.
For the variant LSHT, the enrichment ratio is at most 0.25.
Regarding LKCP, the enrichment ratio is at most 0.25.
As to EDHA, the enrichment ratio is at most 0.25.
With LSGA, the enrichment ratio was at most 0.25.
Consider VISC, for which the enrichment ratio is at most 0.25.
Next, DPDH: at most 0.25; GYKC: at most 0.25; VFTI: at most 0.25.
Regarding LLRP, the enrichment ratio is at most 0.25.
Turning to RPLR, the enrichment ratio was at most 0.25.
GMSN: the enrichment ratio was at most 0.25.
With DHWW the figure was at most 0.25; with APSC, at most 0.25.
Next, YFLH: at most 0.25.
Next, RTQW: at most 0.25.
Consider IYPI, for which the enrichment ratio was at most 0.25.
